Laboratory results taken from the supplement of paper PMC8728848.
The other results are listed elsewhere or left out.

Key:
Assay in all cases: glycan array binding signal (z-score within array); higher = stronger binding
Details in all cases: glycan notation: IUPAC condensed, linker removed
[1] = molecular target: Fuc(a1-2)[Gal(a1-3)]Gal(b1-4)GlcNAc(b1-2)Man(a1-3)[Fuc(a1-2)[Gal(a1-3)]Gal(b1-4)GlcNAc(b1-2)Man(a1-6)]Man(b1-4)GlcNAc(b1-4)GlcNAc
In short: (§1)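 Columns mapping to the same glycan were averaged after glycan names were converted to IUPAC-condensed notation. The data come from 3228 arrays in the Consortium for Functional Glycomics database, limited to those with an available protein sequence. Binding is reported as a within-array Z-score averaged across arrays of one protein sequence and across linkers.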

[2] = molecular target: Fuc(a1-2)[Gal(a1-3)]Gal(b1-4)GlcNAc(b1-2)Man(a1-3)[Fuc(a1-2)[Gal(a1-3)]Gal(b1-4)GlcNAc(b1-2)Man(a1-6)]Man(b1-4)GlcNAc(b1-4)[Fuc(a1-6)]GlcNAc
In short: as §1

[3] = molecular target: Fuc(a1-2)[Gal(a1-3)]Gal(b1-4)GlcNAc(b1-3)GalNAc
In short: as §1

[4] = molecular target: Fuc(a1-2)[Gal(a1-3)]Gal(b1-4)GlcNAc(b1-3)[Fuc(a1-2)[Gal(a1-3)]Gal(b1-4)GlcNAc(b1-6)]GalNAc
In short: as §1

[5] = molecular target: Fuc(a1-2)[Gal(a1-3)]Gal(b1-4)GlcNAc(b1-6)GalNAc
In short: as §1

[6] = molecular target: Fuc(a1-2)[Gal(a1-3)]Gal(b1-4)[Fuc(a1-3)]Glc
In short: as §1

[7] = molecular target: Fuc(a1-2)[Gal(a1-3)]Gal(b1-4)[Fuc(a1-3)]GlcNAc
In short: as §1

[8] = molecular target: Fuc(a1-2)[Gal(a1-3)]Gal(b1-4)[Fuc(a1-3)]GlcNAc(b1-3)GalNAc
In short: as §1

[9] = molecular target: Fuc(a1-2)[Gal(a1-4)]Gal(b1-4)GlcNAc
In short: as §1

[10] = molecular target: Fuc(a1-2)[GalNAc(a1-3)]Gal
In short: as §1

[11] = molecular target: Fuc(a1-2)[GalNAc(a1-3)]Gal(b1-3)GalNAc(a1-3)[Fuc(a1-2)]Gal(b1-4)GlcNAc
In short: as §1

[12] = molecular target: Fuc(a1-2)[GalNAc(a1-3)]Gal(b1-3)GalNAc(b1-3)Gal(a1-4)Gal(b1-4)Glc
In short: as §1

[13] = molecular target: Fuc(a1-2)[GalNAc(a1-3)]Gal(b1-3)GlcNAc
In short: as §1

[14] = molecular target: Fuc(a1-2)[GalNAc(a1-3)]Gal(b1-3)GlcNAc(b1-2)Man(a1-3)[Fuc(a1-2)[GalNAc(a1-3)]Gal(b1-3)GlcNAc(b1-2)Man(a1-6)]Man(b1-4)GlcNAc(b1-4)GlcNAc
In short: as §1

[15] = molecular target: Fuc(a1-2)[GalNAc(a1-3)]Gal(b1-3)GlcNAc(b1-2)Man(a1-3)[Fuc(a1-2)[GalNAc(a1-3)]Gal(b1-3)GlcNAc(b1-2)Man(a1-6)]Man(b1-4)GlcNAc(b1-4)[Fuc(a1-6)]GlcNAc
In short: as §1

[16] = molecular target: Fuc(a1-2)[GalNAc(a1-3)]Gal(b1-3)GlcNAc(b1-3)GalNAc
In short: as §1

[17] = molecular target: Fuc(a1-2)[GalNAc(a1-3)]Gal(b1-3)GlcNAc(b1-6)GalNAc
In short: as §1

[18] = molecular target: Fuc(a1-2)[GalNAc(a1-3)]Gal(b1-4)Glc
In short: as §1

[19] = molecular target: Fuc(a1-2)[GalNAc(a1-3)]Gal(b1-4)GlcNAc
In short: as §1

[20] = molecular target: Fuc(a1-2)[GalNAc(a1-3)]Gal(b1-4)GlcNAc(b1-2)Man
In short: as §1

[21] = molecular target: Fuc(a1-2)[GalNAc(a1-3)]Gal(b1-4)GlcNAc(b1-2)Man(a1-3)[Fuc(a1-2)[GalNAc(a1-3)]Gal(b1-4)GlcNAc(b1-2)Man(a1-6)]Man(b1-4)GlcNAc(b1-4)GlcNAc
In short: as §1

[22] = molecular target: Fuc(a1-2)[GalNAc(a1-3)]Gal(b1-4)GlcNAc(b1-2)Man(a1-3)[Fuc(a1-2)[GalNAc(a1-3)]Gal(b1-4)GlcNAc(b1-2)Man(a1-6)]Man(b1-4)GlcNAc(b1-4)[Fuc(a1-6)]GlcNAc
In short: as §1

[23] = molecular target: Fuc(a1-2)[GalNAc(a1-3)]Gal(b1-4)GlcNAc(b1-3)Gal(b1-4)GlcNAc
In short: as §1

[24] = molecular target: Fuc(a1-2)[GalNAc(a1-3)]Gal(b1-4)GlcNAc(b1-3)Gal(b1-4)GlcNAc(b1-3)Gal(b1-4)GlcNAc
In short: as §1

[25] = molecular target: Fuc(a1-2)[GalNAc(a1-3)]Gal(b1-4)GlcNAc(b1-3)GalNAc
In short: as §1

[26] = molecular target: Fuc(a1-2)[GalNAc(a1-3)]Gal(b1-4)GlcNAc(b1-3)[Fuc(a1-2)[GalNAc(a1-3)]Gal(b1-4)GlcNAc(b1-6)]GalNAc
In short: as §1

[27] = molecular target: Fuc(a1-2)[GalNAc(a1-3)]Gal(b1-4)GlcNAc(b1-6)GalNAc
In short: as §1

[28] = molecular target: Fuc(a1-2)[GalNAc(a1-3)]Gal(b1-4)[Fuc(a1-3)]GlcNAc
In short: as §1

[29] = molecular target: Fuc(a1-2)[GalNAc(a1-3)]Gal(b1-4)[Fuc(a1-3)]GlcNAc(b1-3)GalNAc
In short: as §1

[30] = molecular target: Fuc(a1-2)[GalNAc(a1-4)]Gal(b1-4)GlcNAc
In short: as §1

[31] = molecular target: Fuc(a1-2)[GalNAc(b1-3)]Gal
In short: as §1

Fuc(a1-3)GlcNAc = molecular target: Fuc(a1-3)GlcNAc
In short: as §1

[32] = molecular target: Fuc(a1-3)[Gal(b1-4)]Glc6S
In short: as §1

[33] = molecular target: Fuc(a1-3)[Gal(b1-4)]GlcNAc
In short: as §1

[34] = molecular target: Fuc(a1-3)[Gal(b1-4)]GlcNAc(b1-2)Man
In short: as §1

[35] = molecular target: Fuc(a1-3)[Gal(b1-4)]GlcNAc(b1-2)Man(a1-3)[Fuc(a1-3)[Gal(b1-4)]GlcNAc(b1-2)Man(a1-6)]Man(b1-4)GlcNAc(b1-4)GlcNAc
In short: as §1

[36] = molecular target: Fuc(a1-3)[Gal(b1-4)]GlcNAc(b1-2)Man(a1-3)[Fuc(a1-3)[Gal(b1-4)]GlcNAc(b1-2)Man(a1-6)]Man(b1-4)GlcNAc(b1-4)[Fuc(a1-6)]GlcNAc
In short: as §1

B1: Gal 8 (Mus musculus), Q9JL15 (protein)
chain: MGGSHHHHHHGMASMLSLNNLQNIIYNPIIPYVGTITEQLKPGSLIVIRGHVPKDSERFQVDFQLGNSLKPRADVAFHFNPRFKRSSCIVCNTLTQEKWGWEEITYDMPFRKEKSFEIVFMVLKNKFQVAVNGRHVLLYAHRISPEQIDTVGIYGKVNIHSIGFRFSSASALPHTLGDLQSMETSALGLTQINRENIQKPGKLQLSLPFEARLNASMGPGRTVVIKGEVNTNARSFNVDLVAGKTRDIALHLNPRLNVKAFVRNSFLQDAWGEEERNITCFPFSSGMYFEMIIYCDVREFKVAINGVHSLEYKHRFKDLSSIDTLSVDGDIRLLDVRSW
For B1, which “glycan array binding signal (z-score)” value [1] is on record?
Its value is 2.75.

And the “glycan array binding signal (z-score)” value [2]?
The value was 3.64.

What about the “glycan array binding signal (z-score)” value [3] of the same binder?
Its value is 2.57.

What about the “glycan array binding signal (z-score)” value [4] of the same binder?
Its value is 2.19.

And the “glycan array binding signal (z-score)” value [5]?
Its value is -0.535.

And the “glycan array binding signal (z-score)” value [6]?
The value was -0.504.

What about the “glycan array binding signal (z-score)” value [7] of the same binder?
The value was -0.529.

And the “glycan array binding signal (z-score)” value [8]?
The value was -0.512.

What about the “glycan array binding signal (z-score)” value [9] of the same binder?
The value was -0.535.

And the “glycan array binding signal (z-score)” value [10]?
Its value is -0.528.

What about the “glycan array binding signal (z-score)” value [11] of the same binder?
Its value is 1.71.

And the “glycan array binding signal (z-score)” value [12]?
Its value is -0.013.

And the “glycan array binding signal (z-score)” value [13]?
The value was 1.

And the “glycan array binding signal (z-score)” value [14]?
The value was 2.

And the “glycan array binding signal (z-score)” value [15]?
Its value is 0.654.

What about the “glycan array binding signal (z-score)” value [16] of the same binder?
The value was 0.248.

And the “glycan array binding signal (z-score)” value [17]?
The value was 2.02.

And the “glycan array binding signal (z-score)” value [18]?
The value was 1.61.

What about the “glycan array binding signal (z-score)” value [19] of the same binder?
Its value is 2.06.

What about the “glycan array binding signal (z-score)” value [20] of the same binder?
The value was 3.48.

What about the “glycan array binding signal (z-score)” value [21] of the same binder?
Its value is 2.27.

What about the “glycan array binding signal (z-score)” value [22] of the same binder?
The value was 0.958.

And the “glycan array binding signal (z-score)” value [23]?
The value was 2.19.

And the “glycan array binding signal (z-score)” value [24]?
The value was 2.25.

What about the “glycan array binding signal (z-score)” value [25] of the same binder?
The value was 1.31.

What about the “glycan array binding signal (z-score)” value [26] of the same binder?
Its value is 1.87.

What about the “glycan array binding signal (z-score)” value [27] of the same binder?
The value was 1.3.

What about the “glycan array binding signal (z-score)” value [28] of the same binder?
The value was -0.526.

What about the “glycan array binding signal (z-score)” value [29] of the same binder?
Its value is -0.477.

What about the “glycan array binding signal (z-score)” value [30] of the same binder?
The value was -0.537.

What about the “glycan array binding signal (z-score)” value [31] of the same binder?
Its value is -0.136.

What about the “glycan array binding signal (z-score)” value (Fuc(a1-3)GlcNAc) of the same binder?
The value was -0.543.

What about the “glycan array binding signal (z-score)” value [32] of the same binder?
The value was -0.472.

And the “glycan array binding signal (z-score)” value [33]?
Its value is -0.539.

And the “glycan array binding signal (z-score)” value [34]?
Its value is -0.54.

And the “glycan array binding signal (z-score)” value [35]?
The value was -0.511.

And the “glycan array binding signal (z-score)” value [36]?
Its value is -0.537.
